# Measured values taken from the supplement of paper PMC10338343.
# ± gives the standard deviation. Only a part is listed here, and it is no random draw.
# Test system: MIWI (PIWIL1) piRISC loaded with piRNA #1 (30 nt)
# Test: pre-steady-state target cleavage rate (min^-1); MIWI and MILI are mouse PIWI proteins and EfPiwi is from a freshwater sponge; tags in brackets are library labels; higher = faster piRNA-guided slicing of the target
# Settings: guide: piRNA #1 5'p-UGAGGUAGUAGGUUGUAUAGUAUCCAGAGG; auxiliary factor: 500 nM mouse GTSF1
# Summary of the method: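 In Cleave-'n-Seq, a transcribed, DNA-blocked target RNA library (0.1 nM) was combined with 1 nM active affinity-purified piRISC bearing one synthetic guide, with or without 500 nM GTSF1 partner protein. Reactions ran in HEPES–potassium acetate buffer at 33 °C for 0–8 or 0–960 min. Uncleaved targets were sequenced and normalised to depth and to weakly complementary targets, three trials were pooled, and k3 was capped at 0.0001 min^-1. The pre-steady-state cleavage rate was obtained by fitting a burst-and-steady-state model.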
row,Sequence,pre-steady-state target cleavage rate
1,GGAGUGGAAUCUAUACAACCUACUACCUCA,1.18 ± 0.079
2,GGACUGGAUACUAUACAAGCUACUACCUGA,0.683 ± 0.058
3,GGAGACCUAACUAUACAAUCUACUACCUCA,0.165 ± 0.016
4,GGAGACCUUACUAUACAACCUACGUACCUCA,0.467 ± 0.05
5,GGAGACGAUACUAGACAACCUACUACCUCA,1.49 ± 0.087
6,GGACUGCAUACUAUACAAGCUACUACCUCA,0.938 ± 0.066
7,GGAGACCUUAGUAUACAACCUUCUACCUCA,0.119 ± 0.018
8,GGAGACCAUACAUAUACAACCUACUACCUCA,0.859 ± 0.1
9,GGAGUGGUUACUAUACAACCUAGUACCUCA,0.371 ± 0.05
10,GGUCUGGAUACUAUACUUCCUACUACCUCA,0.248 ± 0.029
11,GCUGUGGAUACUAUAGAACCUACUACCUCA,1.5 ± 0.09
12,GGACUGGAUAGUAUACAACCUACUACCUGA,0.284 ± 0.05
13,GGAGACCUAUGUAUACAACCUACUACGACA,0.00645 ± 0.002
14,GGAGACCUUACUAUACAACCUACAACCUGA,0.304 ± 0.049
15,GGAGACCUAUCUAUACAACGUUCUACCUCA,0.00333 ± 0.0029
16,GGAGAGGAUAGUAUACAACCUACUACGUCA,0.413 ± 0.033
